Test results reported in the BET-seq Pho4 binding data (Le et al. 2018).
Some of the results follow. These are noisy estimates, calculated here from bound and input reads.

These sequences were tested against T1, Pho4 (S. cerevisiae) (UniProt P07270) (assay: relative binding free energy (BET-seq); higher = weaker binding). Settings: reference: library average.
T1 sequence: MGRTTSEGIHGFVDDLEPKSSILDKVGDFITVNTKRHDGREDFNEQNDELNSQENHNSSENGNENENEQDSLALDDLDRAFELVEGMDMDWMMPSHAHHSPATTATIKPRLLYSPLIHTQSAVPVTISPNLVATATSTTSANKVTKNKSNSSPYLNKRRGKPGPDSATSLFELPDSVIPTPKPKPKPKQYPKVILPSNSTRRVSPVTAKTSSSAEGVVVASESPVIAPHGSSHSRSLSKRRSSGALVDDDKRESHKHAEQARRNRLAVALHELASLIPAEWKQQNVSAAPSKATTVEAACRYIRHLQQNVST

Row | Sequence | relative binding free energy
1 | TTAAACACGTGGGTTT | -0.07 kcal/mol
2 | AATTGCACGTGAGTCT | 0.23 kcal/mol
3 | CGGATCACGTGTGAAT | 0.43 kcal/mol
4 | TTGAACACGTGTGGAG | 0.14 kcal/mol
5 | GACAGCACGTGGTTTT | -0.04 kcal/mol
6 | GGTGCCACGTGAATTG | 0.16 kcal/mol
7 | TCGATCACGTGTTGTG | -0.01 kcal/mol
8 | TGTGGCACGTGGGGCG | -0.19 kcal/mol
9 | CGTTGCACGTGATGAA | 0.12 kcal/mol
10 | GCAGGCACGTGTGGTG | 0.03 kcal/mol
11 | CTGGTCACGTGATAGG | 0.17 kcal/mol
12 | AATATCACGTGGTGGA | 0.08 kcal/mol
13 | TATTTCACGTGTTGAT | 0.26 kcal/mol
14 | GTTCACACGTGTGGTA | 0.07 kcal/mol
15 | GTGAGCACGTGTCGGC | 0.04 kcal/mol
16 | AATTTCACGTGTAAGT | 0.28 kcal/mol
17 | GGGGTCACGTGCTACG | 0.04 kcal/mol
18 | GTGGTCACGTGTTAGA | 0.25 kcal/mol
19 | ACGCGCACGTGTTGGT | -0.07 kcal/mol
20 | GCGGTCACGTGTGATA | 0.21 kcal/mol
21 | TTTCGCACGTGTGTTG | -0.11 kcal/mol
22 | TGGAGCACGTGTGTGG | 0 kcal/mol
23 | CGTGGCACGTGGTGTC | -0.2 kcal/mol

Row | Sequence | relative binding free energy
24 | GATTACACGTGTGTGT | 0.19 kcal/mol
25 | TGATGCACGTGGGGGT | -0.16 kcal/mol
26 | TTTGTCACGTGCTCAG | -0.03 kcal/mol
27 | CCAGTCACGTGATGGG | 0.19 kcal/mol
28 | TGTATCACGTGTCGCG | 0.08 kcal/mol
29 | TCTGACACGTGTGCGT | -0.03 kcal/mol
30 | AGTTGCACGTGCGCTG | -0.19 kcal/mol
31 | ACAGTCACGTGGTGGA | -0.13 kcal/mol
32 | TGGGTCACGTGTAGAT | 0.38 kcal/mol
33 | AGTAACACGTGCTGGG | 0.01 kcal/mol
34 | ACCTTCACGTGGGGTT | 0.06 kcal/mol
35 | GCTTGCACGTGGGAAT | 0 kcal/mol
36 | CAGTTCACGTGGCAGT | 0.31 kcal/mol
37 | GGGTACACGTGTTCAG | -0.08 kcal/mol
38 | AGAATCACGTGGGCGT | 0.08 kcal/mol
39 | TGTGCCACGTGGGTTA | -0.19 kcal/mol
40 | GTAAACACGTGGGTAA | -0.01 kcal/mol
41 | TCGCGCACGTGGGGGT | -0.34 kcal/mol
42 | TAGTACACGTGTGCGT | 0.12 kcal/mol
43 | CTTTTCACGTGTATAG | 0.26 kcal/mol
44 | GCGGTCACGTGACGGT | 0.22 kcal/mol
45 | TCGGGCACGTGGTGTA | -0.22 kcal/mol
46 | TTCAACACGTGGGGAT | -0.09 kcal/mol

Row | Sequence | relative binding free energy
47 | TGCCTCACGTGGGGCT | 0.13 kcal/mol
48 | CCGTACACGTGGGTGG | -0.14 kcal/mol
49 | ATAATCACGTGATGAT | 0.19 kcal/mol
50 | TAGTTCACGTGAGTTA | 0.29 kcal/mol
51 | TGTCCCACGTGGGGGA | -0.22 kcal/mol
52 | GGCTACACGTGGGGGT | 0.02 kcal/mol
53 | ATGATCACGTGAGTCG | 0.37 kcal/mol
54 | TTCTTCACGTGAGGCT | 0.4 kcal/mol
55 | TATGGCACGTGAATTG | 0.15 kcal/mol
56 | AACGACACGTGAAGGG | 0.43 kcal/mol
57 | GGGATCACGTGAAGGG | 0.4 kcal/mol
58 | AATTACACGTGGTGGA | 0.08 kcal/mol
59 | GAGGGCACGTGTGTAA | 0.04 kcal/mol
60 | AGGATCACGTGTGTGT | 0.24 kcal/mol
61 | AAGATCACGTGTTATG | 0.15 kcal/mol
62 | GATTTCACGTGTGACT | 0.47 kcal/mol
63 | GGAGACACGTGTTTGG | -0.03 kcal/mol
64 | TGGTACACGTGTAGGC | 0.11 kcal/mol
65 | TATAACACGTGATCGG | 0.17 kcal/mol
66 | GGGTTCACGTGTCTGA | 0.37 kcal/mol
67 | GTAATCACGTGGGAGG | 0.19 kcal/mol
68 | GGAGACACGTGGGGTG | -0.06 kcal/mol
69 | CGTCTCACGTGGGCGG | 0.03 kcal/mol

Row | Sequence | relative binding free energy
70 | ATGTGCACGTGCTATT | -0.07 kcal/mol
71 | GGGAACACGTGATGTG | 0.25 kcal/mol
72 | AGCGGCACGTGTAATA | 0.24 kcal/mol
73 | GCGCACACGTGAGGGG | 0.12 kcal/mol
74 | AAAAACACGTGGGGTA | -0.22 kcal/mol
75 | CGTCACACGTGGGTGG | -0.07 kcal/mol
76 | TTCGGCACGTGGATTG | -0.09 kcal/mol
77 | AAACGCACGTGGTGTG | -0.14 kcal/mol
78 | CGGGGCACGTGAGTCT | 0.19 kcal/mol
79 | GTCGACACGTGTATTG | 0.14 kcal/mol
80 | TCTGTCACGTGGGGTA | -0.04 kcal/mol
81 | GTTGCCACGTGTCGTT | 0.03 kcal/mol
82 | GTGTACACGTGGAGGT | 0.2 kcal/mol
83 | CGGAGCACGTGTGCGT | -0.02 kcal/mol
84 | GTAGGCACGTGGAACG | 0.03 kcal/mol
85 | TGGCACACGTGGTATT | -0.06 kcal/mol
86 | TGGTTCACGTGCTGGT | 0.23 kcal/mol
87 | TGCTACACGTGAATTG | 0.42 kcal/mol
88 | TAATGCACGTGCTGGA | -0.11 kcal/mol
89 | CGGGTCACGTGAGTTG | 0.31 kcal/mol
90 | TGGAACACGTGTGTGA | -0.05 kcal/mol
91 | GTGTTCACGTGTCTGT | 0.34 kcal/mol
92 | CGTGGCACGTGAAGAG | 0.06 kcal/mol

Row | Sequence | relative binding free energy
93 | CTATGCACGTGTTTGA | -0.12 kcal/mol
94 | CGGATCACGTGATGTA | 0.32 kcal/mol
95 | GTCGCCACGTGTGGGT | -0.03 kcal/mol
96 | TGGCGCACGTGGAATT | -0.06 kcal/mol
97 | TCGGGCACGTGGTATA | -0.24 kcal/mol
98 | GGTTCCACGTGGTAGG | 0.09 kcal/mol
99 | CTTGTCACGTGTATGT | 0.04 kcal/mol
100 | GGTCCCACGTGGGGGT | -0.25 kcal/mol
101 | AAGGTCACGTGTGGCT | 0.16 kcal/mol
102 | GAGCGCACGTGGGCTT | -0.09 kcal/mol
103 | TAAGTCACGTGGACGT | 0.08 kcal/mol
104 | ATAGGCACGTGTGATA | -0.03 kcal/mol
105 | GAGATCACGTGCTTGG | 0.24 kcal/mol
106 | TTACTCACGTGTGAGT | 0.23 kcal/mol
107 | CATGGCACGTGTTAGT | -0.14 kcal/mol
108 | GGAGCCACGTGGCTGT | -0.1 kcal/mol
109 | TTTAGCACGTGGGCGG | -0.13 kcal/mol
110 | TTAACCACGTGGGTTG | -0.32 kcal/mol
111 | CTCGTCACGTGTTGAG | 0.2 kcal/mol
112 | AGTGTCACGTGCAGTG | 0.02 kcal/mol
113 | CAGGACACGTGGTAGT | -0.01 kcal/mol
114 | GGATACACGTGTCGGA | 0.17 kcal/mol
115 | TGTAGCACGTGTGATT | -0.09 kcal/mol
